# Assay results taken from the supplement of paper PMC3334620.
# Whole data set: some 33,000 sequences, median “E-score (-0.5 to 0.5)” near -0.012, cut for the highest 2% near 0.27. This is one part of the list.
# Target: T1, Vhr1 (UniProt P40522)
# T1 sequence: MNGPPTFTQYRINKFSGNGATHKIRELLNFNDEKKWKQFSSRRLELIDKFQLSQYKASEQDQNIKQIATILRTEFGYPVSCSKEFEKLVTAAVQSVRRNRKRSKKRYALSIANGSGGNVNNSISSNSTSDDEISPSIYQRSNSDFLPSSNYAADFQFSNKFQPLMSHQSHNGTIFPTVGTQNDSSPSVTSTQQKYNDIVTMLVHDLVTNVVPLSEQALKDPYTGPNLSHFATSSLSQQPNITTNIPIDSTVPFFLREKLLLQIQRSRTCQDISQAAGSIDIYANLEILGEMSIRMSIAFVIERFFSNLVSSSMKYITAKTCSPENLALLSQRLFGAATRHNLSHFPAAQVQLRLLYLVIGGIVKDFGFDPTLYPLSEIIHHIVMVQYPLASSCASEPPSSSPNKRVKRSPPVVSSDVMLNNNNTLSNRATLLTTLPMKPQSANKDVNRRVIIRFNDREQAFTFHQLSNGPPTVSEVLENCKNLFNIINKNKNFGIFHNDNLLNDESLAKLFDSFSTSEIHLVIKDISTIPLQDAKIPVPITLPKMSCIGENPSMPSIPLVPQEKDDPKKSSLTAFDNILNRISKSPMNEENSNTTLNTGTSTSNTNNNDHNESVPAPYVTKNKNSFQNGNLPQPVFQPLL
# Test: PBM E-score (8-mer binding enrichment) (E-score (-0.5 to 0.5)); higher = stronger / more preferred TF binding; most listed sequences are background and not binding sites
# Settings: protein concentration: 200 nM; construct: GST-full length
# Outline: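 For each ungapped eight-base word taken together with its reverse complement, the Universal PBM Analysis Suite assigned an E-score. Binding data came from GST-tagged yeast transcription factors, applied at about 100-200 nM, on universal all-10-mer Agilent arrays made double-stranded by primer extension. Fluorescent anti-GST marked bound protein, and scans were normalised with masliner.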
row,Sequence,PBM E-score
1,ATATGAAG,-0.0333
2,CACTAGCC,0.0788
3,ATGTGCAA,0.0727
4,CACAAAAA,-0.00088
5,AAAGTTAG,0.029
6,ATGTCGCC,0.0236
7,CATACCAG,-0.0296
8,GCTGGTTA,0.0858
9,ACTGTACG,-0.00271
10,CAAGCCAG,0.00992
11,AGCCTATC,-0.105
12,CAAATGGA,-0.0188
13,CCGTACAA,-0.0297
14,CGAGCCAG,0.219
15,ACACTGGT,0.00021
16,ATAACGTG,-0.095
17,AATCCACC,0.154
18,CAGTTGCG,0.107
19,AAGCTAAA,-0.193
20,ACAGTTTG,-0.0891
21,ATTTTGAG,0.0172
22,CGGTCACC,0.0171

row,Sequence,PBM E-score
1,AGCGGGCA,0.0171
2,ACTTACCC,0.205
3,CCTGATGA,0.195
4,AAGAATCG,0.0511
5,GACAACGC,-0.00826
6,ACTTCGTA,-0.201
7,AGCGTCAG,-0.246
8,GTAAGCTA,-0.047
9,CAAACAAC,0.165
10,ATAAACCC,0.223
11,ACTTCTGA,0.137
12,ACTACCTC,0.09
13,CCCACACA,0.0717
14,ACGACCTG,-0.112
15,TAAGCCGA,-0.13
16,AAGTGAGC,-0.0858
17,GGGGATGA,0.0985
18,AACTCCTT,-0.0746
19,CTGGATGC,-0.126
20,CCGTTGCA,-0.0529
21,ACGTGCAG,0.14
22,CAATTGAA,-0.2

row,Sequence,PBM E-score
1,GTTATGAA,0.042
2,ACCTACCG,-0.0874
3,CGCTGAAG,-0.151
4,ACCTCGCG,-0.0715
5,CTCTTTGA,-0.253
6,GCCACCCA,0.0667
7,ATCAATTG,0.136
8,ATGAAGGA,0.0611
9,CCACCCAC,0.231
10,AGTGAGGC,-0.0734
11,GCCTGCTA,-0.166
12,AGCACGAA,0.14
13,CTTATGCA,-0.0585
14,GTAAGTAC,-0.0434
15,AGGTTCTC,-0.119
16,CTTCGGCA,0.00118
17,ACCAAATC,0.00093
18,AGATTACC,0.129
19,GAGACTTA,-0.164
20,AGCCATAA,-0.00291
21,AGACATCC,0.0426
22,CTCCATGA,0.125

row,Sequence,PBM E-score
1,AAGCGTAA,-0.215
2,TCAAACGA,-0.0752
3,GACATATA,0.084
4,CATTTTAC,-0.0327
5,ATTCATTC,0.165
6,AGGCCCCT,-0.3
7,TACTGCGA,0.0661
8,CACGGACA,-0.0785
9,ACGAGTTA,0.162
10,CCCCAAGA,-0.0317
11,GCAGCTTA,-0.0202
12,CGCTATTC,0.0728
13,AATGCCTC,0.0378
14,CAGCCGTC,0.165
15,ATTGTATG,0.141
16,TAGTAACA,0.00961
17,AAATTGTA,0.0507
18,CCTCCCAC,0.0568
19,TAATGGTA,0.118
20,TAATTGCA,0.0646
